In article PMC6800368, “Rotational symmetry of the structured Chip/LDB-SSDP core module of the Wnt enhanceosome” (Proceedings of the National Academy of Sciences of the …, 2019):
Results are given in words; binding and its absence hold for the method and conditions named. For some assays here: In cells and extracts the contact can be indirect. Sequences can lack the tags named with a protein.

T1: SSDP-V5 F58E (Drosophila) (UniProt Q9VEB9)
T1 sequence: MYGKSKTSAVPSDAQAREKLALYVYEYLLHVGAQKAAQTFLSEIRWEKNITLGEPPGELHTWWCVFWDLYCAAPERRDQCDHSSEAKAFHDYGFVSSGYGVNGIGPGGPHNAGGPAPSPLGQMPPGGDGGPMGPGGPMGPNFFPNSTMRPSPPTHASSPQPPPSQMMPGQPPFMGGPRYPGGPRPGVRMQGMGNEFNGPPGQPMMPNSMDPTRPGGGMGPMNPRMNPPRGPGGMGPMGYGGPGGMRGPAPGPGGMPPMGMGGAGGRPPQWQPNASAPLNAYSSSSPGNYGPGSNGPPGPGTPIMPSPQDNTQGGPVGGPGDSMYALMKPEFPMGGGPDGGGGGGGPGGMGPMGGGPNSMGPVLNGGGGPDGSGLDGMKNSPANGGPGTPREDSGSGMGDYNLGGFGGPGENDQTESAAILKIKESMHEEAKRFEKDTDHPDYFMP

T2: MBP-LCCD_(Chip) Mα6 (M402E L405D M406R) (Drosophila) (UniProt Q7KVG9)
T2 sequence: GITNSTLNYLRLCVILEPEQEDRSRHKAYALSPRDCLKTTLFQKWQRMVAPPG


What was measured:
[1] = target: T1, SSDP-V5 F58E (Drosophila); assay: co-IP; Drosophila Pygo coexpressed with Chip and SSDP (WT or mutants) in HEK293T cells
[2] = target: T2, MBP-LCCD_(Chip) Mα6 (M402E L405D M406R) (Drosophila); assay: SEC-MALS; MBP-LCCD_(Chip) (WT or Mα6) coexpressed with Lip-SSDP_(1–92) (WT, V65K, Mα3 or ML), purified; Superdex-200 10/300, 2 mg/mL, PBS, 1 mM DTT; PAGE of SEC fractions; both purified

Binder	binding [1]	binding [2]
Drosophila Pygo (protein, UniProt Q9V9W8 1-815) MTHNLGMAPYRLPGPAGGLCPPDFKPPPPTDIISAPSNPKKRRKTSSAANSAAAVAAAAAAAAAANSMQQQQAPPTPQDLLPPPPMGGFGDTIIASNPFDDSPQVSAMSSSAAAAMAAMNQMGGGPGGGHFGGGGPGGHPHWEDRMGMGGGPPPPPHMHPHMHPHHPGGPMGHPHGPHPHMGGPPPMRGMSPMHPHQMGPGPGVGLPPHMNHGRPGGPGGPGGPVPMGSPMGGIAGMGGMSPMGGMGGPSISPHHMGMGGLSPMGGGPNGPNPRAMQGSPMGGPGQNSPMNSLPMGSPMGNPIGSPLGPPSGPGPGNPGNTGGPQQQQQQPPQPPMNNGQMGPPPLHSPLGNGPTGHGSHMPGGPIPGPGPGPGGLVGPGGISPAHGNNPGGSGNNMLGGNPGGGNSNNNGSNTSNASNNNQNPHLSPAAGRLGVPTSMQSNGPSVSSVASSSVPSPATPTLTPTSTATSMSTSVPTSSPAPPAMSPHHSLNSAGPSPGMPNSGPSPLQSPAGPNGPNNNNSNNNNGPMMGQMIPNAVPMQHQQHMGGGPPGHGPGPMPGMGMNQMLPPQQPSHLGPPHPNMMNHPHHPHHHPGGPPPHMMGGPGMHGGPAGMPPHMGGGPNPHMMGGPHGNAGPHMGHGHMGGVPGPGPGPGGMNGPPHPHMSPHHGHPHHHHNPMGGPGPNMFGGGGGGPMGPGGPMGNMGPMGGGPMGGPMGVGPKPMTMGGGKMYPPGQPMVFNPQNPNAPPIYPCGMCHKEVNDNDEAVFCESGCNFFFHRTCVGLTEAAFQMLNKEVFAEWCCDKCVSSKHIPMVKFKC	no binding	–
Lip-SSDP_(1–92) (domain or fragment, Drosophila, UniProt Q9VEB9 1-92, looked up, Drosophila SSDP, residues 1-92; Obligate dimer; dimers and tetramers are seen by SEC-MALS; also called SSDP-N; WT Lip-SSDP_(1–92); source: E. coli BL21(DE3)-RIL, purified (Ni-NTA, gel filtration); alone or coexpressed with MBP-LCCD from a bicistronic vector) MYGKSKTSAVPSDAQAREKLALYVYEYLLHVGAQKAAQTFLSEIRWEKNITLGEPPGFLHTWWCVFWDLYCAAPERRDQCDHSSEAKAFHDY	–	no binding
